{
  "source": "patent US20110212845A1",
  "about": "“Biomarkers for predicting the sensitivity and response of protein kinase CK2-mediated diseases to CK2 Inhibitors” (priority 2009, published 2011)",
  "key": {"[1]": {"tested_on": "BT-474 breast cancer and BxPC-3 pancreatic cancer cells", "assay": "PI3K/Akt signaling in BT-474 and BxPC-3 cells", "assay_type": "cell-based", "conditions": "increasing concentrations; both cell types"}, "HIF-1α": {"tested_on": "HIF-1α", "assay": "HIF-1α luciferase reporter assay", "conditions": "increasing concentrations"}, "Akt S129 phosphorylation": {"tested_on": "Akt S129 phosphorylation", "assay": "Akt S129 phosphorylation with washout", "conditions": "10 μM, 4 and 8 hours"}},
  "data": [
    {"smiles": "O=C(O)c1ccc2c(c1)nc(Nc1cccc(Cl)c1)c1ccncc12", "note": "[CX-4945]", "values": [
      {"measurement": "levels of p-Akt S129, p-Akt S473 and p-p21 T145", "setting": "[1]", "value": "reduced the levels of p-Akt S129 and p-Akt S473, as well as p-p21 T145"},
      {"measurement": "HIF-1α activity (luciferase reporter)", "setting": "HIF-1α", "value": "decreasing activity of HIF-1α"},
      {"measurement": "reversibility of inhibition of Akt S129 phosphorylation", "setting": "Akt S129 phosphorylation", "value": "reversible"}
    ]}
  ]
}
